Data from EPA's CvTdb concentration-time database.
This continues a long series; more values of the same kind are listed elsewhere.

What was measured:
Rat [1] = test: concentration in plasma after dosing; conditions: 0.25 h; dosed: 2-Methyltetrahydrofuran; 10 mg/kg; iv; Male; F344
Rat [2] = test: concentration in brain after dosing; conditions: 6 h; dosed: 2-Methyltetrahydrofuran; 400 mg/kg; oral; Male; F344
Rat [3] = test: concentration in brain after dosing; conditions: 2.5 h; dosed: 2-Methyltetrahydrofuran; 10 mg/kg; oral; Male; F344
Rat [4] = test: concentration in plasma after dosing; conditions: 10 min; dosed: 2-Methyltetrahydrofuran; 100 mg/kg; oral; Female; Harlan Sprague Dawley
Rat [5] = test: concentration in brain after dosing; conditions: 10 min; dosed: 2-Methyltetrahydrofuran; 10 mg/kg; iv; Female; F344
Rat [6] = test: concentration in plasma after dosing; conditions: 1 h; dosed: 2-Methyltetrahydrofuran; 10 mg/kg; oral; Female; F344
Rat [7] = test: concentration in plasma after dosing; conditions: 0.5 h; dosed: 2-Methyltetrahydrofuran; 10 mg/kg; iv; Female; F344
Rat [8] = test: concentration in plasma after dosing; conditions: 0.25 h; dosed: 2-Methyltetrahydrofuran; 10 mg/kg; iv; Female; F344
Rat [9] = test: concentration in brain after dosing; conditions: 20 min; dosed: 2-Methyltetrahydrofuran; 30 mg/kg; oral; Female; F344
Rat [10] = test: concentration in brain after dosing; conditions: 20 min; dosed: 2-Methyltetrahydrofuran; 10 mg/kg; iv; Male; F344
Rat [11] = test: concentration in brain after dosing; conditions: 2 min; dosed: 2-Methyltetrahydrofuran; 10 mg/kg; iv; Male; F344
Rat [12] = test: concentration in plasma after dosing; conditions: 20 min; dosed: 2-Methyltetrahydrofuran; 100 mg/kg; oral; Male; Harlan Sprague Dawley
Rat [13] = test: concentration in plasma after dosing; conditions: 8 h; dosed: 2-Methyltetrahydrofuran; 100 mg/kg; oral; Female; Harlan Sprague Dawley
Rat [14] = test: concentration in plasma after dosing; conditions: 4 min; dosed: 2-Methyltetrahydrofuran; 30 mg/kg; oral; Female; F344
Rat [15] = test: concentration in brain after dosing; conditions: 20 min; dosed: 2-Methyltetrahydrofuran; 100 mg/kg; oral; Male; Harlan Sprague Dawley
Rat [16] = test: concentration in plasma after dosing; conditions: 20 min; dosed: 2-Methyltetrahydrofuran; 10 mg/kg; oral; Male; F344
Rat [17] = test: concentration in plasma after dosing; conditions: 1.5 h; dosed: 2-Methyltetrahydrofuran; 100 mg/kg; oral; Female; Harlan Sprague Dawley
Rat [18] = test: concentration in brain after dosing; conditions: 0.25 h; dosed: 2-Methyltetrahydrofuran; 30 mg/kg; oral; Female; F344
Rat [19] = test: concentration in plasma after dosing; conditions: 0.25 h; dosed: 2-Methyltetrahydrofuran; 30 mg/kg; oral; Male; F344
Rat [20] = test: concentration in plasma after dosing; conditions: 0.75 h; dosed: 2-Methyltetrahydrofuran; 100 mg/kg; oral; Male; Harlan Sprague Dawley
Rat [21] = test: concentration in plasma after dosing; conditions: 3 h; dosed: 2-Methyltetrahydrofuran; 10 mg/kg; iv; Female; F344
Rat [22] = test: concentration in plasma after dosing; conditions: 20 min; dosed: Bromochloroacetic acid; 10 mg/kg; iv; Male; F344
Rat [23] = test: concentration in plasma after dosing; conditions: dosed: Bromochloroacetic acid, 80 mg/kg, iv, Female, Harlan Sprague-Dawley
Rat [24] = test: concentration in plasma after dosing; conditions: 10 min; dosed: Bromochloroacetic acid; 10 mg/kg; iv; Male; F344
Rat [25] = test: concentration in plasma after dosing; conditions: dosed: Fluorotelomer alcohol 8+2, 40 mg/kg, oral, Female, Harlan Sprague Dawley
Rat [26] = test: concentration in plasma after dosing; conditions: dosed: Formamide, 90 mg/kg, iv, Male, Harlan Sprague Dawley
Rat [27] = test: concentration in plasma after dosing; conditions: dosed: Formamide, 90 mg/kg, iv, Male, Harlan Sprague Dawley; remark: listed apart in the source
Rat [28] = test: concentration in plasma after dosing; conditions: 2 h; dosed: Pyridine; 5 mg/kg; iv; Female; F344
Rat [29] = test: concentration in plasma after dosing; conditions: 5 h; dosed: Pyridine; 200 mg/kg; oral; Female; F344
Rat [30] = test: concentration in plasma after dosing; conditions: 9 h; dosed: Pyridine; 200 mg/kg; oral; Female; F344
Rat [31] = test: concentration in plasma after dosing; conditions: 2 h; dosed: Pyridine; 200 mg/kg; oral; Female; Harlan Sprague Dawley
Rat [32] = test: concentration in plasma after dosing; conditions: dosed: Pyridine, 5 mg/kg, iv, Female, F344
Rat [33] = test: concentration in plasma after dosing; conditions: 10 min; dosed: Pyridine; 200 mg/kg; oral; Female; Harlan Sprague Dawley

CC1CCCO1 (stereo not drawn) [2-Methyltetrahydrofuran]
Conditions | concentration in brain [µg/g] | concentration in plasma [ng/mL]
Rat [1] | – | 6840
Rat [2] | 71.2 | –
Rat [3] | 0.0218 | –
Rat [4] | – | 48900
Rat [5] | 4.7 | –
Rat [6] | – | 1390
Rat [7] | – | 4760
Rat [8] | – | 7240
Rat [9] | 10.8 | –
Rat [10] | 4.58 | –
Rat [11] | 10.2 | –
Rat [12] | – | 46200
Rat [13] | – | 217
Rat [14] | – | 8790
Rat [15] | 35.8 | –
Rat [16] | – | 2810
Rat [17] | – | 40300
Rat [18] | 9.56 | –
Rat [19] | – | 19600
Rat [20] | – | 38800
Rat [21] | – | 72.7

O=C(O)C(Cl)Br (stereo not drawn) [Bromochloroacetic acid]
Conditions | concentration in plasma [ng/mL]
Rat [22] | 1360
Rat [24] | 3650

Rat [23]
Conditions | concentration in plasma [ng/mL]
1 h | 18300
2 h | 1050

OCCC(F)(F)C(F)(F)C(F)(F)C(F)(F)C(F)(F)C(F)(F)C(F)(F)C(F)(F)F [Fluorotelomer alcohol 8+2]
Rat [25]
Conditions | concentration in plasma [ng/mL]
1 h | 479
24 h | 2.4

NC=O [Formamide]
concentration in plasma [ng/mL]
Conditions | 8 h | 10 min | 12 h | 18 h
Rat [26] | 98600 | – | 86900 | –
Rat [27] | – | 90100 | – | 22500

c1ccncc1 [Pyridine]
Conditions | concentration in plasma [ng/mL]
Rat [28] | 2460
Rat [29] | 75400
Rat [30] | 77900
Rat [31] | 84000
Rat [33] | 102000

Rat [32]
Conditions | concentration in plasma [ng/mL]
0.5 h | 3520
8 h | 1000
